Each compound was assayed on MLKL phosphorylation, HT29-L23 human colorectal adenocarcinoma cells (assay: cells). Conditions: read-out: pMLKL HCS Cell Assay (IC50, uM).

Compared with `Cc1ccc(-c2cc(C(F)(F)F)c3c(N)ncnn23)cc1C(=O)Nc1cn(Cc2ccc(F)cc2)cn1` [Example 1803, 5-(4-amino-5-(trifluoromethyl)pyrrolo[2,1-f][1,2,4]triazin-7-yl)-N-(1-(4-fluorobenzyl)-1H-imidazol-4-yl)-2-methylbenzamide], `Nc1ncnn2c(-c3ccc(Cl)c(C(=O)N[C@@H]4CN(C(=O)c5cccc(F)c5)C[C@@H]4F)c3)cc(C(F)(F)F)c12` [Example 951, 5-[4-amino-5-(trifluoromethyl)pyrrolo[2,1-f][1,2,4]triazin-7-yl]-2-chloro-N-[(3R,4S)-4-fluoro-1-(3-fluorobenzoyl)pyrrolidin-3-yl]benzamide] is 17-fold higher in IC50: 0.00086 µM for the first, 0.015 µM for the second.

Compared with `COc1ncc(-c2cc(CN3CCOCC3)c3c(N)ncnn23)cc1C(=O)N[C@@H]1CN(S(=O)(=O)CCC(F)(F)F)C[C@@H]1F` [Example 1718, 5-(4-amino-5-(morpholinomethyl)pyrrolo[2,1-f][1,2,4]triazin-7-yl)-N-((3R,4S)-4-fluoro-1-((3,3,3-trifluoropropyl)sulfonyl)pyrrolidin-3-yl)-2-methoxynicotinamide], `COc1ncc(-c2cc(CN3CCC4(CC3)CC4(F)F)c3c(N)ncnn23)cc1C(=O)N[C@@H]1CN(C(=O)[C@@](C)(O)C(F)(F)F)C[C@@H]1F` [Example 1610, 5-[4-amino-5-({1,1-difluoro-6-azaspiro[2.5]octan-6-yl}methyl)pyrrolo[2,1-f][1,2,4]triazin-7-yl]-N-[(3R,4S)-4-fluoro-1-[(2R)-3,3,3-trifluoro-2-hydroxy-2-methylpropanoyl]pyrrolidin-3-yl]-2-methoxypyridine-3-carboxamide] is 1.8-fold higher in IC50: 0.00028 µM for the first, 0.00051 µM for the second. The first is the more potent here.

Going from `Cc1ncc(-c2cc(C(F)(F)F)c3c(N)ncnn23)cc1C(=O)N[C@@H]1CN(C(=O)C2CC(F)(F)C2)C[C@@H]1C` [Example 292, 5-[4-amino-5-(trifluoromethyl)pyrrolo[2,1-f][1,2,4]triazin-7-yl]-N-[(3S,4S)-1-(3,3-difluorocyclobutanecarbonyl)-4-methylpyrrolidin-3-yl]-2-methylpyridine-3-carboxamide] to `COc1ncc(-c2cc(C(F)(F)F)c3c(N)ncnn23)cc1C(=O)NC1CN(C(=O)C2CC(F)(F)C2)CC1F` (single isomer, unassigned) [Example 37, 5-[4-amino-5-(trifluoromethyl)pyrrolo[2,1-f][1,2,4]triazin-7-yl]-N-[1-(3,3-difluorocyclobutanecarbonyl)-4-fluoropyrrolidin-3-yl]-2-methoxypyridine-3-carboxamide], the IC50 falls from 0.133 µM to 0.042 µM (3.2-fold). The second is the more potent here.

`[2H]C([2H])([2H])Oc1ncc(-c2cc(CC3CC(F)(F)C3)c3c(N)ncnn23)cc1C(=O)N[C@@H]1CN(C(=O)OCC(F)(F)F)C[C@@H]1F` [Example 1548, 2,2,2-Trifluoroethyl (3R,4S)-3-(5-(4-amino-5-((3,3-difluorocyclobutyl)methyl)pyrrolo[2,1-f][1,2,4]triazin-7-yl)-2-(methoxy-d3)nicotinamido)-4-fluoropyrrolidine-1-carboxylate] and `COc1ncc(-c2cc(CN3CC(F)(F)C3)c3c(N)ncnn23)cc1C(=O)N[C@@H]1CN(C(=O)C(C)(C)C(F)(F)F)C[C@@H]1F` [Example 1618, 5-{4-amino-5-[(3,3-difluoroazetidin-1-yl)methyl]pyrrolo[2,1-f][1,2,4]triazin-7-yl}-N-[(3R,4S)-4-fluoro-1-(3,3,3-trifluoro-2,2-dimethylpropanoyl)pyrrolidin-3-yl]-2-methoxypyridine-3-carboxamide] are within 1.5-fold of each other in IC50: 0.0006 µM for the first, 0.00068 µM for the second.

First: Cc1cc(-c2cc(C(F)(F)F)c3c(N)ncnn23)cc(C(=O)N[C@@H]2CN(C(=O)C3CCC(F)(F)C3)C[C@@H]2F)c1Cl (stereo partly drawn) [Example 710, 5-[4-amino-5-(trifluoromethyl)pyrrolo[2,1-f][1,2,4]triazin-7-yl]-2-chloro-N-[(3R,4S)-1-(3,3-difluorocyclopentanecarbonyl)-4-fluoropyrrolidin-3-yl]-3-methylbenzamide]
Second: Nc1ncnn2c(-c3ccc(CF)c(C(=O)N[C@@H]4CN(C(=O)C5CCC(F)(F)C5)C[C@@H]4F)c3)cc(C(F)(F)F)c12 (stereo partly drawn) [Example 920, 5-[4-amino-5-(trifluoromethyl)pyrrolo[2,1-f][1,2,4]triazin-7-yl]-N-[(3R,4S)-1-(3,3-difluorocyclopentanecarbonyl)-4-fluoropyrrolidin-3-yl]-2-(fluoromethyl)benzamide]
The IC50 of the first is 6.1-fold higher: 0.014 µM for the first, 0.0023 µM for the second. The second is the more potent here.

Compared with `CCC(O)(C(=O)N1C[C@H](F)[C@H](NC(=O)c2cc(-c3cc(C(F)(F)F)c4c(N)ncnn34)cnc2C)C1)C(F)(F)F` (stereo partly drawn) [Example 1231, 5-[4-amino-5-(trifluoromethyl)pyrrolo[2,1-f][1,2,4]triazin-7-yl]-N-[(3R,4S)-4-fluoro-1-[2-hydroxy-2-(trifluoromethyl)butanoyl]pyrrolidin-3-yl]-2-methylpyridine-3-carboxamide], `CC(C)(F)C(=O)N1C[C@H](F)[C@H](NC(=O)c2cc(-c3cc(C(F)(F)F)c4c(N)ncnn34)ccc2C(F)(F)F)C1` [Example 894] is 6.4-fold higher in IC50: 0.018 µM for the first, 0.115 µM for the second. The first is the more potent here.

First: CC(C)(O)C(=O)N1C[C@H](F)[C@H](NC(=O)c2cc(-c3cc(C(F)(F)F)c4c(N)ncnn34)cc(F)c2Cl)C1 [Example 639]
Second: Cc1cc(F)c(-c2cc(C(F)(F)F)c3c(N)ncnn23)cc1C(=O)N[C@@H]1CN(C(=O)C(C)(C)O)C[C@@H]1F [Example 416, 5-[4-amino-5-(trifluoromethyl)pyrrolo[2,1-f][1,2,4]triazin-7-yl]-4-fluoro-N-[(3R,4S)-4-fluoro-1-(2-hydroxy-2-methylpropanoyl)pyrrolidin-3-yl]-2-methylbenzamide]
The IC50 of the first is 2.1-fold higher: 0.068 µM for the first, 0.032 µM for the second.

First: COc1ncc(-c2cc(C(F)(F)F)c3c(N)ncnn23)cc1C(=O)NC1CN(Cc2ccccc2F)CC1F (racemic) [Example 217, 5-[4-amino-5-(trifluoromethyl)pyrrolo[2,1-f][1,2,4]triazin-7-yl]-N-{4-fluoro-1-[(2-fluorophenyl)methyl]pyrrolidin-3-yl}-2-methoxypyridine-3-carboxamide]
Second: COc1ncc(-c2cc(C(F)(F)F)c3c(N)ncnn23)cc1C(=O)N[C@@H]1CN(C(=O)c2c(F)cccc2F)C[C@@H]1F [Example 306, 5-[4-amino-5-(trifluoromethyl)pyrrolo[2,1-f][1,2,4]triazin-7-yl]-N-[(3R,4S)-1-(2,6-difluorobenzoyl)-4-fluoropyrrolidin-3-yl]-2-methoxypyridine-3-carboxamide]
The IC50 of the first is 2-fold lower: 0.0046 µM for the first, 0.0094 µM for the second. The first is the more potent here.

Compared with `COc1ncc(-c2cc(C(F)(F)F)c3c(N)ncnn23)cc1C(=O)N[C@@H]1CCC[C@@H](c2ccccc2)C1` (racemic) [Example 1692, 5-(4-amino-5-(trifluoromethyl)pyrrolo[2,1-f][1,2,4]triazin-7-yl)-2-methoxy-N-((1RS,3RS)-3-phenylcyclohexyl)nicotinamide], `COc1ncc(-c2cc(C(F)(F)F)c3c(N)ncnn23)cc1C(=O)N[C@@H]1CN(C2CCCC2O)C[C@@H]1F` (mixture of isomers) [Example 1406, 5-[4-amino-5-(trifluoromethyl)-pyrrolo[2,1-f][1,2,4]triazin-7-yl]-N-[(3R,4S)-4-fluoro-1-(2-hydroxycyclopentyl)pyrrolidin-3-yl]-2-methoxypyridine-3-carboxamide] is 2.6-fold higher in IC50: 0.059 µM for the first, 0.153 µM for the second. The first is the more potent here.

Compared with `CC(C)(C(=O)N1C[C@H](F)[C@H](NC(=O)c2cccc(-c3cc(C(F)(F)F)c4c(N)ncnn34)c2F)C1)C(F)(F)F` [Example 770, 3-[4-amino-5-(trifluoromethyl)pyrrolo[2,1-f][1,2,4]triazin-7-yl]-2-fluoro-N-[(3R,4S)-4-fluoro-1-(3,3,3-trifluoro-2,2-dimethylpropanoyl)pyrrolidin-3-yl]benzamide], `Cc1ccc(-c2cc(C(F)(F)F)c3c(N)ncnn23)cc1C(=O)N[C@@H]1CN(C(=O)c2cc(F)c(F)cc2F)C[C@@H]1F` [Example 1026, 5-[4-amino-5-(trifluoromethyl)pyrrolo[2,1-f][1,2,4]triazin-7-yl]-N-[(3R,4S)-4-fluoro-1-(2,4,5-trifluorobenzoyl)pyrrolidin-3-yl]-2-methylbenzamide] is 640-fold lower in IC50: 0.335 µM for the first, 0.00052 µM for the second.

Compared with `COc1ncc(-c2c(F)cc3c(N)ncnn23)cc1C(=O)N[C@@H]1CN(C(=O)C2CCC(F)CC2)C[C@@H]1F` (stereo partly drawn) [Example 513, 5-{4-amino-6-fluoropyrrolo[2,1-f][1,2,4]triazin-7-yl}-N-[(3R,4S)-4-fluoro-1-(4-fluorocyclohexanecarbonyl)pyrrolidin-3-yl]-2-methoxypyridine-3-carboxamide], `COc1ncc(-c2cc(Cn3ncnn3)c3c(N)ncnn23)cc1C(=O)N[C@@H]1CN(C(=O)C2CC(F)(F)C2)C[C@@H]1F` [Example 1711, 5-(5-((2H-tetrazol-2-yl)methyl)-4-aminopyrrolo[2,1-f][1,2,4]triazin-7-yl)-N-((3R,4S)-1-(3,3-difluorocyclobutane-1-carbonyl)-4-fluoropyrrolidin-3-yl)-2-methoxynicotinamide] is 12-fold lower in IC50: 0.184 µM for the first, 0.016 µM for the second. The second is the more potent here.

Compared with `[2H]C([2H])([2H])Oc1ncc(-c2cc(CN3CC(F)(F)C3)c3c(N)ncnn23)cc1C(=O)N[C@@H]1CN(S(=O)(=O)C2CCCCC2)C[C@@H]1F` [Example 1281, 5-{4-amino-5-[(3,3-difluoroazetidin-1-yl)methyl]pyrrolo[2,1-f][1,2,4]triazin-7-yl}-N-[(3R,4S)-1-(cyclohexanesulfonyl)-4-fluoropyrrolidin-3-yl]-2-(methoxy-d3)nicotinamide], `[2H]C([2H])([2H])Oc1ncc(-c2cc(CN3CC(F)(F)C3)c3c(N)ncnn23)cc1C(=O)N[C@@H]1CN(S(=O)(=O)c2cn(C)c(C)n2)C[C@@H]1F` [Example 1290, 5-{4-amino-5-[(3,3-difluoroazetidin-1-yl)methyl]pyrrolo[2,1-f][1,2,4]triazin-7-yl}-N-[(3R,4S)-1-[(1,2-dimethyl-1H-imidazol-4-yl)sulfonyl]-4-fluoropyrrolidin-3-yl]-2-(methoxy-d3)nicotinamide] is 58-fold higher in IC50: 0.00043 µM for the first, 0.025 µM for the second. The first is the more potent here.

`Cc1nc(C(=O)N2C[C@H](F)[C@H](NC(=O)c3cc(-c4cc(C(F)(F)F)c5c(N)ncnn45)c(F)cc3C)C2)c(C)s1` [Example 840, 5-[4-amino-5-(trifluoromethyl)pyrrolo[2,1-f][1,2,4]triazin-7-yl]-N-[(3R,4S)-1-(2,5-dimethyl-1,3-thiazole-4-carbonyl)-4-fluoropyrrolidin-3-yl]-4-fluoro-2-methylbenzamide] was tested, and the IC50 was 0.077 µM.

Source: patent US11618753B2 (priority 2018, dated 2023)
